Measurements published in PubChem BioAssay AID651820 (National Center for Advancing Translational Sciences (NCATS), 2012).
Screen size: about 340,000 compounds; about 12,000 (3.5%) were called active. Inconclusive means that the source gave no clear call. Such entries were picked first, then a sample of the others. The call rests on the fitted dose curve; in most records, active means well fitted inhibition curve with a large enough effect; inconclusive means small, poorly fitted or top-dose-only effect, or another doubt; inactive means no such curve, though single readings can be large or run the other way. No potency is given beside an inconclusive call; the fits are too rough.

Assay: qHTS Assay for Inhibitors of Hepatitis C Virus (HCV)
Conditions: Huh7.5.1 HCVcc-Cre (HCVcc is cell-culture hepatitis C virus) infection, luciferase reporter, 44 h; activity change, negative = inhibition: at 41.8 µM (top of the series) unless noted
How it was run: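 1,000 cells/well; 4 h culture; + compound; + HCVcc-Cre (~0.5 moi); 44 h; luciferase substrate, RT 15 min; read 15 sec.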
On the % scale 0 is the no-effect control and ±100 the full control effect; potency means the concentration at half of the fitted maximal effect; tags describe the fitted curve by direction and shape.

SMILES | activity change, negative = inhibition | Potency
O=C(Nc1ccc2c(c1)nc1n2CCSC1)c1ccccc1 | inactive: -24.3% | –
CC(=O)Nc1ccc(N=Cc2nc(-c3ccc(C)cc3)oc2O)cc1 | – | inconclusive [inhibitor, full curve, poor fit]
Nc1ccc2c(c1)Cc1c(F)cccc1-2 | – | inconclusive [inhibitor, single point]
CC(=O)Nc1ccc(NC(=O)C(C)OC(=O)c2c(NC(C)=O)sc(C)c2C)cc1 (stereo not drawn) | inactive: -22.1% | –
COc1ccc(N(C)S(=O)(=O)c2ccc(Cl)c(C(=O)NCCc3ccc(Cl)cc3)c2)cc1 | – | active: 10 µM
CCN(CC(=O)Nc1c(F)cccc1F)C(=O)c1ccc2c(c1)S(=O)(=O)N=C1CCCCCN12 | – | inconclusive [inhibitor, single point]
COc1cccc2c1C(=N)c1c(O)c3c(c(O)c1C2=O)CC(O)(C(C)=O)CC3OC1CC(N)C(O)C(C)O1 (stereo not drawn) | – | inconclusive [inhibitor, partial curve, poor fit]
C/C(=N/Nc1ccc([N+](=O)[O-])cc1)c1c[nH]c2ccccc12 | – | inconclusive [inhibitor, single point]
Cc1cc(C(=O)OC(C)C(=O)Nc2nc(-c3ccccc3)cs2)c(C)o1 (stereo not drawn) | – | inconclusive [inhibitor, partial curve]
O=C(CCCl)N1c2ccccc2C=Cc2ccccc21 | – | inconclusive [inhibitor, single point]
O=c1c2ccccc2oc2ccc(-c3ccc4[nH]ccc4c3)cc12 | – | inconclusive [inhibitor, partial curve]
CN(CC(=O)Nc1ccc(Cl)cc1)C(=O)c1ccc(N2CCCC2=O)cc1 | inactive: 21.9% | –
O=C(NCC1CCCO1)c1c(O)c2cccc3c2n(c1=O)CCC3 (stereo not drawn) | – | inconclusive [inhibitor, partial curve]
c1ccc(-c2nc3nonc3nc2-c2ccccc2)cc1 | – | inconclusive [inhibitor, single point]
O=C(c1ccncc1)N(c1ccc2oc3c(c2c1)CCCC3)S(=O)(=O)c1ccc(F)cc1 | – | inconclusive [inhibitor, single point]
C=CCNCC(=O)Nc1sc2c(c1C(=O)Nc1ccc(OC)cc1OC)CCC2 | – | active: 10 µM
Cc1nc2ccc(Br)cc2c(=O)n1Cc1cccs1 | – | inconclusive [inhibitor, single point]
Cc1cc(O)c2c(CN3CCN(Cc4ccccc4)CC3)cc(=O)oc2c1 | – | inconclusive [inhibitor, single point]
